Measurements: PubChem BioAssay AID686978 (National Center for Advancing Translational Sciences (NCATS), 2013)
About 64,000 (15%) of roughly 420,000 compounds were called active. This list was built around the results that the source calls inconclusive (neither active nor inactive); the mix of calls is not that of the screen. The call rests on the fitted dose curve; in most records, active means well fitted inhibition curve with a large enough effect; inconclusive means small, poorly fitted or top-dose-only effect; inactive means flat fitted curve, though single readings scatter. Potencies of inconclusive entries are left out as doubtful fits.

Experiment: qHTS for Inhibitors of human tyrosyl-DNA phosphodiesterase 1 (TDP1): qHTS in cells in absence of CPT; further: nearly all actives have a fitted effect of over 55% in size
Conditions: DT40 Tdp1-/- hTDP1 cells, no CPT, ATP luminescence, 48 h; activity change, negative = growth inhibition: at 46.2 µM (top of the series)
Method in brief: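 Chicken DT40 Tdp1-/- cells complemented with human TDP1, screened without camptothecin (DMSO vehicle only), 400 cells/well. Compounds pin-transferred, cells incubated at 37 °C for at least 48 hr. Growth read as ATP-dependent luminescence (CellTiter-Glo, 30 min at RT).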
On the % scale 0 is the no-effect control and ±100 the full control effect; potency means the concentration at half of the fitted maximal effect; tags describe the fitted curve by direction and shape.

SMILES | Potency | activity change, negative = growth inhibition
COc1ccc(C/C(N)=N/OC(=O)Cc2ccccc2)cc1 | inconclusive [inhibitor, partial curve, poor fit] | –
CC1(c2nnnn2-c2ccc3c(c2)OCCO3)CCC(=O)N1CC1CCCCC1 (stereo not given) | inconclusive [inhibitor, partial curve] | –
CCCCn1nnnc1SCC(=O)NNC(=O)c1ccco1 | – | inactive: -0.794%
Fc1c(F)c(F)c(N/N=C/c2c[nH]c3ccccc23)c(F)c1F | inconclusive [inhibitor, single point] | –
Cc1cc(Br)cn2c(Cc3ccsc3)c(C3CCCCC3)nc12 | inconclusive [inhibitor, single point] | –
Cc1ccc2c(C(=O)CN3CCCCC3CCO)c(C)[nH]c2c1 (stereo not given) | inconclusive [inhibitor, single point] | –
CN1CCN(C2Cc3cc(F)ccc3Sc3ccc(Cl)cc32)CC1 (stereo not given) | inconclusive [inhibitor, single point] | –
CCCCn1c(=O)n(Cc2cccc(F)c2)c(=O)c2c1ncn2Cc1ccco1 | inconclusive [inhibitor, single point] | –
CCOC(=O)C1CCN(C(=O)c2cc(S(=O)(=O)N3CCc4ccccc43)ccc2OC)CC1 | inconclusive [inhibitor, single point] | –
O=C(c1c[nH]c(C(=O)C(Cl)(Cl)Cl)c1)c1ccccc1Br | inconclusive [inhibitor, single point] | –
COc1ccccc1NS(=O)(=O)c1cc(N/C(=N/S(=O)(=O)c2ccccc2)c2ccc(F)cc2)ccc1Cl | active: 20.6 µM | –
CCCn1c(CCNc2nc(-c3ccc(OC)cc3)cs2)nc2ccccc21 | inconclusive [inhibitor, single point] | –
COC(=O)C1=C(O)C2(C(=O)O)CC(C(=O)OC)=C(O)C(C(=O)O)(C1)C2 | active: 10.3 µM | –
Cc1cccc(NCC(=O)N/N=C\c2c[nH]c3ccccc23)c1 | inconclusive [inhibitor, single point] | –
COc1cc(NC(=O)Cc2cccs2)cc(OC)c1 | active: 18.4 µM | –
CS(=O)(=O)c1ncc(Cl)c(C(=O)Nc2ccc(N3CCOCC3)cc2)n1 | active: 1.12 µM | –
CCC1=Nc2cc(C(=O)NCCN3CCCC3)ccc2Sc2ccccc21 | inconclusive [inhibitor, single point] | –
O=C(COc1ccc(Cl)cc1)NCCSc1ccccc1 | – | inactive: -24.2%
CCCS(=O)(=O)c1nc(S(=O)(=O)c2ccc(C)cc2)c(N2CCCC2)s1 | inconclusive [inhibitor, partial curve, poor fit] | –
CC1CCCCC1NC(=O)c1ccco1 (stereo not given) | – | inactive: 0.0988%
C=CCn1c(C)nnc1SCC(=O)N1CCN(S(=O)(=O)c2ccccc2)CC1 | – | inactive: 18.5%
O=C(Nc1ccccc1)c1cc(N2CCOCC2)nc2ccccc12 | – | inconclusive: -36.7% [inhibitor]
Nc1nc2n(n1)C(c1ccccc1Cl)CC(c1ccc(F)cc1)N2 (stereo not given) | inconclusive [inhibitor, partial curve] | –
COc1ccc(CCNC(=O)C2CCN(C(=O)c3ccc(C(C)(C)C)cc3)CC2)cc1 | inconclusive [inhibitor, full curve, poor fit] | –

SMILES | Potency | activity change, negative = growth inhibition
O=C(CSc1nc2c(c(=O)[nH]1)CN(Cc1ccc3c(c1)OCO3)CC2)Nc1cccc(Cl)c1 | inconclusive [inhibitor, single point] | –
C=CCn1c(SC(F)F)nc2scc(-c3ccco3)c2c1=O | – | inactive: 4.67%
O=C/C(=C\Nc1ccccn1)c1nc2cc(Cl)ccc2o1 | inconclusive [inhibitor, single point] | –
Cc1cc(OCc2cc(C(=O)N3CCN(CC4CC4)CC3)no2)cc(C)c1Cl | inconclusive [inhibitor, single point] | –
Cc1ccc(C(=O)Nc2nc(C(N)Cc3ccc(C(F)(F)F)cc3)cs2)cc1 (stereo not given) | inconclusive [inhibitor, single point] | –
COc1ccc(NC(=O)c2nc[nH]c2C(=O)N[C@@H](C)c2ccccc2)cc1 | inconclusive [inhibitor, single point] | –
COc1ccc(C)cc1NC(=O)C(OC(=O)c1ccc(Cl)c(S(=O)(=O)N(C)c2ccccc2)c1)c1ccccc1 (stereo not given) | inconclusive [inhibitor, partial curve] | –
Cc1ccc(C2CC(=O)Oc3cc(C)c(Br)c(C)c32)cc1 (stereo not given) | – | inactive: -13.2%
O=C1N=c2ccccc2=C1c1[nH]c(=S)[nH]c1O | inconclusive [inhibitor, single point] | –
CCOC(=O)N1CCN(S(=O)(=O)c2cc(Cl)c(OC)cc2Cl)CC1 | inconclusive [inhibitor, partial curve, poor fit] | –
COC(=O)c1ccccc1NC(=O)C1CCCO1 (stereo not given) | – | inactive: 10.9%
O=C(c1sc2ccccc2c1Cl)N(Cc1ccccc1Cl)C1CCS(=O)(=O)C1 (stereo not given) | inconclusive [inhibitor, single point] | –
Cc1nc2c(c(C)nn2-c2ccccc2)c(C)c1CCC(=O)NCCc1ccccc1 | active: 20.6 µM | –
COc1ccccc1-n1cnc2cc(NS(=O)(=O)c3ccccc3)ccc21 | inconclusive [inhibitor, single point] | –
CCOC(=O)c1noc2ncnc(N3CCC(C)CC3)c12 | – | inactive: -28.8%
O=C(O)c1cc(Cl)c(Cl)cc1C(=O)Nc1cccc2ncccc12 | – | inactive: -3.56%
COCCN(C(=O)c1ccco1)c1nc(-c2ccccc2)cs1 | inconclusive [inhibitor, single point] | –
COc1cccc(C(=O)CSc2nc3cccnc3n2C)c1 | – | inconclusive: -30.6% [inhibitor]
Oc1ccc(Br)cc1/C=N/NC(=S)NCCc1ccccc1 | active: 16.4 µM | –
CCOc1ccc(Oc2nc(NC)nc(N3CCOCC3)n2)nn1 | – | inactive: -4.25%
Cc1ccc(C)c(CSc2nnc(CCN)o2)c1 | inconclusive [inhibitor, single point] | –
O=C1C=C(c2ccc3ncccc3c2)C[C@@H](c2ccc(F)cc2)C1 | inconclusive [inhibitor, single point] | –
COc1ccc(NS(=O)(=O)c2cc(OC)ccc2NC(=O)c2cc(C)oc2C)cc1 | active: 2.59 µM | –
CN1CCN(c2ccc(C(=O)c3ccc(F)cc3)cc2)CC1 | – | inconclusive: -32.3% [inhibitor]

SMILES | Potency | activity change, negative = growth inhibition
Cc1cccc(Cn2cc3c(=O)n(CC(=O)Nc4ccc(C)c(F)c4)nc-3c3cc(F)ccc32)c1 | – | inactive: -21.2%
Cc1cc(C)n(-c2ccc(C(=O)OCC(=O)Nc3ccc(S(=O)(=O)N4CCCCC4)cc3)cc2)n1 | inconclusive [inhibitor, single point] | –
Cc1ccc(C2=NS(=O)(=O)N(C)C(C(=O)NCc3ccc(F)cc3)=C2)cc1 | inconclusive [inhibitor, single point] | –
COC(=O)c1ccc(NC(=O)Nc2ccc(OC)cc2)cc1 | inconclusive [inhibitor, single point] | –
COc1ccc(CC(=O)NCc2nc3cccnc3n2Cc2ccc(C)cc2)cc1OC | – | inconclusive: -30% [inhibitor]
COc1ccc(C(=O)c2coc3ccc(O)c(CN4CCOCC4)c23)cc1 | inconclusive [inhibitor, single point] | –
N#CCCN(C(=S)NC(=O)C1CCCCC1)c1ccccc1F | – | inactive: -6.43%
COc1cccc(C(=O)CSc2nc3ccccc3n2CC(=O)N(C(C)C)C(C)C)c1 | – | inactive: 6.4%
C[C@H](CO)N1C[C@H](C)[C@@H](CN(C)C(=O)Nc2ccc(C(C)(C)C)cc2)OCc2cnnn2CCCC1=O | inconclusive [inhibitor, single point] | –
O=C(COC(=O)c1c2c(nc3ccccc13)CCCC2)c1cccs1 | inconclusive [inhibitor, single point] | –
CCc1nc2ccc(C(=O)NCCN3CCCC3)cn2c1N(C)Cc1ccc(OC)cc1 | inconclusive [inhibitor, single point] | –
COc1cccc(OCc2cc(C(=O)N3CCC(C(O)C(C)C)CC3)no2)c1 (stereo not given) | inconclusive [inhibitor, single point] | –
COc1ccc(CCN2C(=O)CSCC2(C)C(=O)Nc2ccc3c(c2)OCCO3)cc1OC (stereo not given) | – | inconclusive: -31.3% [inhibitor]
COc1ccccc1-c1coc2c(CN3CCCC(C)C3)c(O)ccc2c1=O (stereo not given) | – | inactive: 2.5%
Cc1cccc(NC(=S)NCCc2ccccc2)c1C | inconclusive [inhibitor, single point] | –
O=S(=O)(c1ccc(F)cc1)N1CCN(S(=O)(=O)c2cc(F)ccc2F)CC1 | inconclusive [inhibitor, single point] | –
O=C(COc1ccccc1[N+](=O)[O-])OCC(=O)c1ccc(Br)s1 | – | inactive: -8.46%
COc1ccc(NC(=O)c2ccc(NS(=O)(=O)c3cccc4cccnc34)cc2)cc1 | inconclusive [inhibitor, single point] | –
COc1cc(NC(=O)COC(=O)[C@@H]2CCCN2S(=O)(=O)c2ccc(Cl)cc2)cc(OC)c1OC | – | inactive: -7.4%
N#Cc1ccc(Nc2nc(-c3ccccc3)c(C(=O)c3ccccc3)s2)cc1 | active: 23.1 µM | –
O=C(COc1cccnc1[N+](=O)[O-])Nc1ccccc1Sc1ccccc1 | inconclusive [inhibitor, partial curve, poor fit] | –
Cc1c(C)c2ccc(OCC(=O)N3CC[C@@]4(O)CCCC[C@H]4C3)cc2oc1=O | – | inactive: -31.6%
